# Assay results as given in PubChem BioAssay AID1345083 (National Center for Advancing Translational Sciences (NCATS), 2018).
# In all, about 94,000 compounds went through this assay and about 6,200 (6.6%) were called active. Inconclusive means that the source gave no clear call. Such entries were picked first, then a sample of the others. Calls follow the shape of the dose curve; as a rule, active = well fitted inhibition curve with a large enough effect; inconclusive = small, poorly fitted or top-dose-only effect; inactive = flat fitted curve, though single readings scatter. Where the call is inconclusive, the potency comes from a doubtful curve fit.
# Experiment: Cytotoxic Profiling in HEK 293 Cell Line of Diverse Libraries Using Quantitative High-Throughput Screening; also: nearly all actives have a fitted effect of over 60% in size
# Settings: HEK 293 viability, ATP luminescence (CellTiter-Glo), 48-72 h; series mostly up to 115 µM
# Procedure, shortened: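 CellTiter-Glo luminescence (cellular ATP) was read after 48 or 72 hr of compound exposure at 37 degree Celsius. Cells were HEK 293 plated at 250 cells/well.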
# Potency is read from the fitted curve at half-maximal effect; tags tell the direction and shape of the fitted curve.
row,Compound,Potency
1,Cc1ccccc1Cn1cc(-c2ccncc2)cc1C(=O)NC1CC1,"inconclusive: 44.7 µM [inhibitor, partial curve, poor fit]"
2,O=C(C1CCCC1)N1CCC2(CC1)CC(N1CCCCC1)CCO2 (stereo not given),inactive
3,Cc1csc(NC(=O)C2(C)COCc3cnc(Nc4ccccc4)nc32)n1 (stereo not given),active: 79.4 µM
4,COCC1(CNCc2cn(C)c3ccccc23)C[C@@H](O)[C@@H](O)C1 (stereo not given in full),"inconclusive: 126 µM [inhibitor, single point]"
5,Cc1ccc(CC(=O)NC2CCN(c3cc(-c4cccs4)[nH]n3)C2)cc1 (stereo not given),"inconclusive: 50.1 µM [inhibitor, partial curve, poor fit]"
6,O=C(CCC1CCCC1)N1CCC2(CC1)CC(N(Cc1ccccc1)C1CC1)CCO2 (stereo not given),"inconclusive: 79.4 µM [inhibitor, partial curve]"
7,CCc1ccc(CN2CCOC(Cc3ccc(OC)cc3)C2)o1 (stereo not given),"inconclusive: 100 µM [inhibitor, single point]"
8,CC(C)c1noc(C2Cc3ccccc3N2C(=O)CCn2cnnn2)n1 (stereo not given),inactive
9,CN1[C@@H](CCC(=O)N2CCN(c3ccccc3)CC2)CNC(=O)[C@@H]2[C@H]1CCN2CC(C)(C)C,"inconclusive: 100 µM [inhibitor, single point]"
10,COc1cccc([S+](=O)([O-])N2CCCC3(CC(c4ccccc4)=NO3)C2)c1 (stereo not given),"inconclusive: 89.1 µM [inhibitor, partial curve, poor fit]"
11,Cc1noc(C)c1Cc1ccc(C(=O)N2CCC(C)(c3noc(-c4cccnc4)n3)CC2)o1,"inconclusive: 44.7 µM [inhibitor, partial curve, poor fit]"
12,CC(C)CNC(=O)N1CCC(CCOc2ccc(F)cc2)C1 (stereo not given),"inconclusive: 89.1 µM [inhibitor, partial curve, poor fit]"
13,CNC(=O)CCn1ncc2cc(OC3CCc4cccc(-c5cccc(CO)c5)c43)ccc21 (stereo not given),active: 79.4 µM
14,Cn1ncc2c(C(=O)NCCCNC(=O)OC(C)(C)C)cc(-c3ccccc3C(F)(F)F)nc21,"inconclusive: 89.1 µM [inhibitor, single point]"
15,O=C(NCCN[S+](=O)([O-])c1ccccc1)c1cccc(-c2ccc(C(F)(F)F)cc2)c1,active: 10 µM
16,Cc1nc(N2CCC(NCCCc3ccncc3)CC2)c2ccsc2n1,"inconclusive: 79.4 µM [inhibitor, single point]"
17,CN1CCC(N2CCC(N3C(=O)C4(CCCCC4)C3c3ccncc3)CC2)CC1 (stereo not given),inactive
18,CC(Cn1ccc2ccccc21)NC1CCN(c2ccc(C(=O)N(C)C)cc2)CC1 (stereo not given),inactive
19,C[S+](=O)([O-])N1CCC(c2nnc3n2C(C(=O)NCCc2ccc(Cl)cc2)CC3)CC1 (stereo not given),inactive
20,Cc1noc(C)c1CC(=O)N1CCC(CCOc2ccccc2F)C1 (stereo not given),"inconclusive: 79.4 µM [inhibitor, partial curve, poor fit]"
21,Cc1ccccc1-n1ncc(C(C)NC(=O)c2cc(F)ccc2F)c1C (stereo not given),"inconclusive: 39.8 µM [inhibitor, partial curve]"
22,C[C@]1(CO)[C@H]2Cc3sc(NC(=O)c4c(F)cccc4F)nc3[C@@H](CC(=O)NC3CC3)[C@]2(C)CC[C@H]1O,inactive

row,Compound,Potency
1,Cc1nn2c(c1-c1ccccc1Oc1ccccc1)N(CC1CC1)CCC2,active: 28.2 µM
2,O=C(CC1CCCC1)N1CC[C@@]2(O)CCN(Cc3ccccn3)C[C@H]2C1,inactive
3,CC(=O)N1CC2(CCN(CC3CCCCC3)C2)Cc2ccccc21 (stereo not given),"inconclusive: 79.4 µM [inhibitor, partial curve]"
4,Cn1ncc2c(C(=O)NCc3ccc(Cl)cc3)cc(-c3ccc(F)cc3)nc21,"inconclusive: 31.6 µM [inhibitor, full curve, poor fit]"
5,Cc1c(C(=O)N[C@H]2[C@H]3CCO[C@H]3[C@@H]2N(C)C)[nH]c2c(F)cccc12,inactive
6,O=C(NCc1ccccc1)c1ccnc(-c2nnc3ccc(N4CCOCC4)nn23)c1,"inconclusive: 100 µM [inhibitor, partial curve, poor fit]"
7,CC(=O)Nc1ccc(C2(C(=O)NCc3ccco3)CCC2)cc1,inactive
8,N#Cc1ccc(S(=O)(=O)N2CCCCCCNC(=O)[C@@H]3CCC[C@@H]32)cc1,"inconclusive: 50.1 µM [inhibitor, partial curve, poor fit]"
9,COc1cccc(-c2c(C(=O)NCc3cccc(C(F)(F)F)c3)nc3sccn23)c1,"inconclusive: 25.1 µM [inhibitor, full curve]"
10,COC[C@@H]1CN(C(=O)CC(C)C)C[C@H]1c1ccccn1,inactive
11,CO[C@H]1C(=O)N(C(C)C)[C@H]1C1CCN(C(=O)c2ccc3ncccc3c2)CC1,inactive
12,Cc1ncsc1C1N(C2CCN(Cc3ccccc3)CC2)C(=O)C12CCCC2 (stereo not given),"inconclusive: 79.4 µM [inhibitor, partial curve, poor fit]"
13,COc1cccc(CNC(=O)c2ccc3nc(-c4cccc(C)n4)oc3c2)c1,"inconclusive: 56.2 µM [inhibitor, partial curve, poor fit]"
14,CC1(COc2ccccc2)COc2ccc(C(=O)NCc3ccco3)cc2N1 (stereo not given),"inconclusive: 100 µM [inhibitor, partial curve, poor fit]"
15,O=C(c1nnn2cc(-c3ccccc3)[nH]c(=O)c12)N1CCN(C2CCCCC2)CC1,inactive
16,CC(C)c1ccc(CN2C[C@@H]3C(=O)N(Cc4ccc5c(c4)OCO5)C(=O)[C@@H]3C2)cc1,"inconclusive: 70.8 µM [inhibitor, partial curve, poor fit]"
17,CN(Cc1cccnc1)Cc1ccccc1C(F)(F)F,inactive
18,Cc1ccc(C2=NC3(CCN(C(=O)c4cccs4)CC3)ON2)cc1,inactive
19,COc1ccc(-c2ccc3c(n2)CN(Cc2ccccc2F)C(=O)CO3)cc1OC,active: 50.1 µM
20,O=C(CCC1CCCN(S(=O)(=O)c2cccc(F)c2)C1)Nc1ccc(F)cc1 (stereo not given),"inconclusive: 35.5 µM [inhibitor, full curve, poor fit]"
21,O=C(Cc1cccc(Cl)c1)N[C@@H]1CN(c2ncccn2)C[C@H]1CO,inactive
22,COCC1CN(C(C)=O)CC12CCN(C1CCN(C(C)=O)CC1)CC2 (stereo not given),inactive

row,Compound,Potency
1,COc1cccc([S+](=O)([O-])N2CCc3nc(C(C)C)nc(-c4ccc(Cl)cc4)c3C2)c1,"inconclusive: 22.4 µM [inhibitor, full curve, poor fit]"
2,c1ccc(CCNc2ncncc2-c2nc(-c3ccccc3)no2)cc1,"inconclusive: 89.1 µM [inhibitor, partial curve, poor fit]"
3,Cc1cccc(CC(=O)N2CCC3(CC2)CC(O)CCO3)c1 (stereo not given),inactive
4,O=C(c1ccc(Cl)cc1)N1CC2(CCCN(C3COC3)C2)Cc2ccccc21 (stereo not given),"inconclusive: 50.1 µM [inhibitor, partial curve, poor fit]"
5,CC(C)Cc1cc(C[C@@H]2C[C@H](NC3CCOCC3)C2(C)C)no1,inactive
6,CNC(=O)CCn1ncc2cc(OCc3ccccc3-c3c(C)noc3C)ccc21,"inconclusive: 100 µM [inhibitor, partial curve, poor fit]"
7,Cc1noc(C)c1CN1CCCC(c2nccn2Cc2ccccc2)C1 (stereo not given),"inconclusive: 89.1 µM [inhibitor, single point]"
8,CCOCCNC(=O)C1CCCN(Cc2cccc(-c3ccc(F)cc3F)c2)C1 (stereo not given),"inconclusive: 39.8 µM [inhibitor, partial curve]"
9,COCCn1ccc2c(C3=CCOCC3)nc(-c3cccc4[nH]ccc34)cc21,active: 28.2 µM
10,COc1ccc(-c2cn3cc(C(=O)NCC(C)C)nc3s2)cc1,"inconclusive: 28.2 µM [inhibitor, full curve, poor fit]"
11,Cc1ccc(CN2C(=O)NC3(CCN(C(=O)c4cccc(C#N)c4)CC3)C2=O)cc1,"inconclusive: 22.4 µM [inhibitor, full curve, poor fit]"
12,CNC(=O)[C@H]1CN(C(=O)NC2CCCC2)[C@]2(C)C(=O)N(CC3CC3)c3ccccc3[C@H]12,"inconclusive: 89.1 µM [inhibitor, single point]"
13,O=C(NCc1cccc(C(F)(F)F)c1)C1CN(C2CCCCC2)C(=O)N1 (stereo not given),"inconclusive: 89.1 µM [inhibitor, single point]"
14,COc1ccc(-c2ccnc3nc(CCc4ccc(OC)c(OC)c4)nn23)cc1,"inconclusive: 50.1 µM [inhibitor, partial curve, poor fit]"
15,Cc1ccc2c(N3CCC(CO)(CN4CCCC4)CC3)ccnc2c1C,"inconclusive: 31.6 µM [inhibitor, full curve, poor fit]"
16,CCc1ccc(C(=O)NC2CCN(c3cc(-c4cccs4)[nH]n3)CC2)cc1,"inconclusive: 35.5 µM [inhibitor, partial curve, poor fit]"
17,CC1=C[C@@H](CNC(=O)C(C)(C)C)[C@H](C(C)C)C[C@H]1CC(=O)N(C)Cc1cccnc1,"inconclusive: 100 µM [inhibitor, partial curve, poor fit]"
18,OC1CCN(c2cc(N3CCOC(c4ccc(F)cc4)C3)ncn2)CC1 (stereo not given),"inconclusive: 50.1 µM [inhibitor, partial curve, poor fit]"
19,O=C(Nc1ccc(F)cc1)C1CN(C2CCCCC2)C(=O)N1 (stereo not given),"inconclusive: 126 µM [inhibitor, single point]"
20,CC(C)CCN1CCC2(CC1)CC(=O)Nc1ccccc1O2,inactive
21,O=C(c1ccccn1)N1CCCN(c2cc(-c3ccc(Cl)cc3)[nH]n2)CC1,"inconclusive: 56.2 µM [inhibitor, partial curve, poor fit]"
